Measurements as given in paper PMC4336329 (PLoS ONE, 2015).
The whole screen tested about 310,000 compounds, of which about 2,200 (0.71%) showed an effect of 50% or more. Effects have a minus sign here. The list shows a part of the results.

The molecules below were run against human ether-à-go-go-related gene (hERG) potassium channel (human, UniProt Q12809) (assay: primary screen, population patch clamp on CHO cells stably expressing hERG).
Sequence of human ether-à-go-go-related gene (hERG) potassium channel (Q12809 whole entry, looked up): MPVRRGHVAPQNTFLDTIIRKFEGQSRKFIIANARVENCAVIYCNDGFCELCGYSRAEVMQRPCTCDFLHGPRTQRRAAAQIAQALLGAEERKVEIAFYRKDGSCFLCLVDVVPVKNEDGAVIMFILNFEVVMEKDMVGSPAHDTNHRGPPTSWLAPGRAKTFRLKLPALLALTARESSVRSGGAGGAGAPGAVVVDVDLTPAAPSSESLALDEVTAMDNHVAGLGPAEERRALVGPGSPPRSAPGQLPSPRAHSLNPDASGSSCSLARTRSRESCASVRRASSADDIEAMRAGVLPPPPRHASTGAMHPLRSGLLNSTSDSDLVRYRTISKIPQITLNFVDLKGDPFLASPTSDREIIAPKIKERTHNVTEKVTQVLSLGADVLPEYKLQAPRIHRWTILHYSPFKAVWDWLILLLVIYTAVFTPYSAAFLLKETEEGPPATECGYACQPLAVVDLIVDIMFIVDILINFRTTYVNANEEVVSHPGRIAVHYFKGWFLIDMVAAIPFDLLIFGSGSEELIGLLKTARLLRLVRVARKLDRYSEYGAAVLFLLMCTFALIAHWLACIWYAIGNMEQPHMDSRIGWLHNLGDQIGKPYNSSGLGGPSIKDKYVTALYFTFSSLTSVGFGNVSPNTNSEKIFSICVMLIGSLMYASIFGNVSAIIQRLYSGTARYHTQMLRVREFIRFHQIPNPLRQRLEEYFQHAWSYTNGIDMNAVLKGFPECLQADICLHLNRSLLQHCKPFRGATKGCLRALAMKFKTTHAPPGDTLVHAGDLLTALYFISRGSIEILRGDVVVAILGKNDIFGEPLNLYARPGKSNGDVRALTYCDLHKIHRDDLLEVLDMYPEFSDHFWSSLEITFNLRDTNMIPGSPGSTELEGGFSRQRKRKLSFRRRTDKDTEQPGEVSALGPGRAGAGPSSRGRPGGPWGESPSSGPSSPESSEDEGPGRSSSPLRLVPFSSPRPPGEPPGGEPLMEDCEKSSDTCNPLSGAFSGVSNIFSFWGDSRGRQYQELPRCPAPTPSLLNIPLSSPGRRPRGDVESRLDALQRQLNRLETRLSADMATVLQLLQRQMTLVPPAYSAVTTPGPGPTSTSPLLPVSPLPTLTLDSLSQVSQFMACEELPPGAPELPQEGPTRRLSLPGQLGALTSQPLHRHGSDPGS

Compound	hERG current change (%, negative = inhibition) at 1uM [%]
Cc1ccc(S(=O)(=O)NC(=O)NCc2ccc(F)cc2)cc1	8.24
C/C(=N/OC(=O)c1ccccc1Br)c1ccc(C)cc1	21.7
CC(Sc1ncnc2sccc12)C(=O)Nc1ccc(C(N)=O)cc1 (centres unmarked)	10.5
Cc1ccc(NC(=O)C(OC(=O)c2cc(C)oc2C)c2ccccc2)cc1 (centres unmarked)	8.64
CCOc1ccc(NC(=O)CCNS(=O)(=O)c2cccc3nsnc23)cc1	14.5
COCC(=O)Nc1ccc2c(c1)OCO2	10.6
O=C(Nc1ccccc1N1CCOCC1)c1ccc([N+](=O)[O-])o1	-1
COc1ccc(OCCOCCOc2ccc(C)cc2[N+](=O)[O-])cc1	5.86
COc1ccc2[nH]c(=O)c(CN(Cc3ccc(C)cc3)Cc3nnnn3CC3CCCO3)cc2c1 (centres unmarked)	9.11
Cc1nc2sccn2c(=O)c1S(=O)(=O)N1CCN(c2cccc(Cl)c2)CC1	2.45
COc1ccc(CCNC(=O)CCCC(=O)n2nc(C)c3ccccc32)cc1OC	11.8
CCCCC(=O)Nc1nnc(-c2ccc(OC)cc2)s1	-4.02
CCC1CCCCN1C(=O)COc1cccc2c1CCN(C)C2=O (centres unmarked)	6.08
Cn1c(SCC(=O)N2CCCc3ccccc32)nnc1-c1ccco1	11
CC(=O)N1CCN(c2nc(CC(C)C)c3c(c2C#N)CCC3)CC1	8.43
OC(CNCc1cccs1)c1ccccc1 (centres unmarked)	15.1
C=CCN1CCN(C(=O)c2cc3c(s2)CCCC3)CC1	-1.43
COCCn1c(C)cc(C(=O)CSc2cc(C)c3ccccc3n2)c1C	6.15
CCCCn1c(N)c(N(CCC(C)C)C(=O)c2sc3nc4n(c(=O)c3c2C)CCC4)c(=O)[nH]c1=O	12.5
COc1ccc(-c2ccccc2)cc1NC(=O)c1cccs1	10.6

Compound	hERG current change (%, negative = inhibition) at 1uM [%]
CCOc1ccc(-n2c(SCC(N)=O)nc3c([nH]c4ccccc43)c2=O)cc1	8.16
CC/C(=N/Nc1ccccc1)c1cnnc(-c2ccccc2)n1	0.406
CC(C)(C)CN1C(N)=NC[C@@H]1Cc1ccc(O)cc1	3.77
O=C(CSc1nnnn1-c1ccc(O)cc1)c1cc2ccccc2o1	10.4
Cc1ccc2nc(NCC(=O)O)nc(-c3ccccc3)c2c1	8.21
CS(=O)(=O)NCC(c1cccnc1)N1CCN(c2ccccc2F)CC1 (centres unmarked)	1.52
CCOC(=O)CSc1cccc2cccnc12	1.33
COc1ccc(CNC(=O)CSc2nc3ccccc3n2C(C)=O)cc1	9.53
CCOC(=O)NN1C(=O)c2ccccc2NC1c1cccnc1 (centres unmarked)	0.305
CC(=O)n1nc(-c2cccnc2)nc1N	-2.76
O=[N+]([O-])c1ccc(Cl)c(/C=N/NC(=S)Nc2ccccc2)c1	22.1
O=C(Nc1ccc(OC(F)(F)F)cc1)c1ccc2nc[nH]c2c1	3.01
O=[N+]([O-])c1cc(CN2CCN(c3cccc(C(F)(F)F)c3)CC2)c2cccnc2c1O	12.2
C=CCNC(=S)NCCO	14.1
Cc1ccccc1C(=O)Nc1cc(C(F)(F)F)ccc1-n1cncn1	7.37
O=C1NC(=O)N(c2ccc3c(c2)OCO3)C(=O)/C1=C/c1ccsc1	12.4
CCOc1cc(/C=N/NC(=O)c2nn(C)cc2Br)ccc1OCc1ccccc1	7.84
COc1ccc(-c2cn(Cc3ccc(C(N)=O)cc3)c(-c3ccc(Cl)nc3)n2)cc1	-9.64
C/C(=N/O)c1ccc2c(c1)OCCOCCOc1cc(/C(C)=N/O)ccc1OCCOCCO2	-79.7
CC(C)(C)OC(=O)[C@H](Cc1ccccc1)NC(=O)c1nc[nH]c1C(=O)N1CCc2ccccc2C1	1.91

Compound	hERG current change (%, negative = inhibition) at 1uM [%]
O=C(O)c1[nH]c2ccccc2c1C=NCc1ccccc1Cl	12.4
CNC(=O)c1cc(Nc2nnc(C)c3ccccc23)ccc1OC	11.2
CC(=O)NC(CC(=O)O)c1ccc([N+](=O)[O-])cc1 (centres unmarked)	16
CCOc1ccc(S(=O)(=O)NC(C)C(=O)NCc2ccc3c(c2)OCO3)cc1 (centres unmarked)	1.45
Cc1ccc2ccc(S(=O)(=O)NCc3ccccn3)cc2c1	14.2
CCn1c(=O)c(C(=O)NCCc2ccccc2)c(O)c2ccccc21	18
CC(=O)c1ccc(OCCCC(=O)NNC(=O)c2ccccn2)cc1	10.1
CN(C)C(CNc1ncnc2sc3c(c12)CCCCC3)c1ccco1 (centres unmarked)	12.8
COc1ccc(S(=O)(=O)N2CCOCC2)cc1NC(=O)c1ccc2c(c1)OCCO2	6.39
COC(=O)c1ccc(OC(=O)c2ccco2)cc1	9.12
Cc1ccc(-c2cc(C(F)(F)F)c(C#N)c(SCC(=O)O)n2)cc1	15.3
COC(=O)c1c(/N=C/N(C)C)sc2c1CCN(c1ncc(C(F)(F)F)cc1Cl)C2	2.67
COc1ccc2c(C(=O)CN3CCSCC3)c[nH]c2c1	8.2
S=C(NCc1cccnc1)NCc1cccnc1	4.36
CCCCc1c(O)nc2n(c1=O)CCS2	3.77
CN1CCn2c1nc(N1CCCCC1)nc2=O	-0.619
O=C1c2ccccc2NC(c2cccc(O)c2)N1NS(=O)(=O)c1ccccc1 (centres unmarked)	6.25
CCOc1ccc(NC(=O)CSc2nccn(-c3ccc4c(c3)OCCO4)c2=O)cc1	2.22
CCCCNC(=O)CCCN1C(=O)c2cccnc2Sc2ccccc21	14.1
